Measured values taken from the supplement of paper PMC3334620.
In all, about 33,000 sequences were measured (“E-score (-0.5 to 0.5)”: median about -0.043, highest 2% from about 0.37 on). The list shows a part of the results.

target: T1, Upc2 (UniProt Q12151); experiment: PBM E-score (8-mer binding enrichment) (E-score (-0.5 to 0.5)); higher = stronger / more preferred TF binding; most listed sequences are background and not binding sites; conditions: protein concentration: 200 nM; construct: GST-full length
T1 sequence: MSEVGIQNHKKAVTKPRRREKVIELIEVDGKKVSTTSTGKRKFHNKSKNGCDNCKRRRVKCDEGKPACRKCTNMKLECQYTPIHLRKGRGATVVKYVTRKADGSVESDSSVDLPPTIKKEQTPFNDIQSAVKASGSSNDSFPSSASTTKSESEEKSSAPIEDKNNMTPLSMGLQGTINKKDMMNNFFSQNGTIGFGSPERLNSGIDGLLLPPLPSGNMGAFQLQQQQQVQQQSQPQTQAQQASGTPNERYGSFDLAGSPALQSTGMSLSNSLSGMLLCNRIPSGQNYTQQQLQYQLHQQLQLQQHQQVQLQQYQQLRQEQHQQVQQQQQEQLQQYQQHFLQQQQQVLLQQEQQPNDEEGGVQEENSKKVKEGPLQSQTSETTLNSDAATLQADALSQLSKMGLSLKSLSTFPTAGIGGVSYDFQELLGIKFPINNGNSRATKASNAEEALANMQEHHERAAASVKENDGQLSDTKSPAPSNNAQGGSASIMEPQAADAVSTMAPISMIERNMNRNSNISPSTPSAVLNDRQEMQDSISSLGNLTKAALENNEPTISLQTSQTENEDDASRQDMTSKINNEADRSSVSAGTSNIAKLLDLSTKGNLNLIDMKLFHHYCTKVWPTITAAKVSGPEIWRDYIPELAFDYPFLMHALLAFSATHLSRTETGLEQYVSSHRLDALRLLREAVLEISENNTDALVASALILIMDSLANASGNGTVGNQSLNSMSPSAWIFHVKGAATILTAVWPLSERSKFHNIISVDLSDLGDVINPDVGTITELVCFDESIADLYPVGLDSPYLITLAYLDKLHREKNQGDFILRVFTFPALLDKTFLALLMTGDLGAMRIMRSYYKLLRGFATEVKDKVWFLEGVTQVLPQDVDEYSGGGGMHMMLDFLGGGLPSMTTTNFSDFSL
In short: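 Universal all-10-mer Agilent arrays, double-stranded by primer extension on fresh or once-stripped slides, were probed with about 100-200 nM GST-tagged yeast transcription factors made by PURExpress. Fluorescent anti-GST detected bound protein, and masliner normalised the scans. E-scores from the Universal PBM Analysis Suite were given to each ungapped eight-base word pooled with its reverse complement.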

Sequence	PBM E-score
ACCAGCTA	-0.0512
ATTATCCC	-0.0232
ATGCGCAA	-0.0585
CGTGAAAG	0.109
ACTGCCCA	-0.081
GTAGCTAA	0.0478
CAGGCAGA	-0.159
CTAGCGGC	-0.228
GCCGCGTA	0.271
AGTAGGCC	-0.00345
AACTGGTC	0.0299
AGAGGGTG	-0.171
CATGCTCA	-0.172
AGCCTTCG	-0.145
CATGCCTC	-0.0206
CGAGGATA	0.169
ATCGTGGA	-0.0423
GAAGCGAC	0.154
AAGCCTAT	-0.0475
CTGCAGGC	-0.313
GCTAAACA	0.0407
CTATGCCA	-0.28
GGTTATAA	-0.0491
CAACCACG	-0.0859
AACCAAGG	-0.0086

Sequence	PBM E-score
GCCTCAAA	-0.0241
AAAGGCGT	-0.0984
ATCCTAGG	-0.224
CCTACAGA	-0.0651
ACCCCGGT	0.0534
CTGGAGCC	-0.258
AATGGGGT	-0.189
CGTAGTTC	0.0119
GGTTAAAC	0.232
GCCGAGGC	0.0355
ATTTGGGC	-0.121
CGAGCACG	0.171
AGCGAGAT	0.282
CTTAAGGC	-0.0149
ATCGCTTC	0.118
GCAAACCA	-0.0687
GACGTCTC	0.177
GAGTGAAA	-0.0499
TCCAACCA	-0.223
ATCTAGGG	-0.0219
ATCGTGCC	-0.0436
CAGATCTC	-0.0487
AGGCTCCC	-0.306
ACCAAAAA	-0.00478
AACCAAAC	0.171

Sequence	PBM E-score
AGCACACC	-0.182
ATTTAGGC	-0.097
CTGAGCAA	-0.0698
CCTTGCAC	0.0659
ATCCATGA	-0.188
CAGGACCA	-0.227
CCGTGGCC	-0.206
CTGAAAAG	-0.0688
GAACGTTC	0.281
GAGCGTAC	0.23
ATTGCCAC	-0.191
AGCGATTA	0.107
AGCCGAAG	-0.185
AGACTCCC	-0.27
TGCCTCAA	-0.256
ACCGCGGC	0.094
CAACCTGC	-0.0219
ACTACCGC	-0.108
AAGGCTCG	0.195
CCCTTCGG	-0.0969
AGACTCCT	-0.268
ATCTAGGC	-0.219
TCACGAAA	-0.0654
CGCCGGCC	-0.278
ACGCTTCG	0.245

Sequence	PBM E-score
CACTCCAC	-0.0427
AAGCAAAG	-0.208
AGATGCCC	-0.0733
CTGTGTCA	-0.268
GCAGTAGA	-0.083
ACTTTCTG	-0.183
CGACGAAC	0.151
CGCTTATA	0.307
CGTCTTTC	-0.0479
CTCTCCAC	-0.291
ACGTTTCT	0.0616
GCGAATGA	0.144
AATCCAAC	-0.154
CACCTCTG	-0.232
ACGACCCT	0.285
AGGTGGTA	-0.114
CCTATTAC	0.1
CGCGATCA	0.0471
CAAGGGTA	-0.127
CGATTGTA	0.149
ATTGCCTC	-0.052
AACACACG	0.0319
TGCACCAA	-0.247
TATGTTCA	0.0762
AGGCTGCC	-0.0713

Sequence	PBM E-score
CATACACC	-0.0184
AACGTTGA	0.0964
AGAGTTGC	-0.202
GGAAACAC	0.105
ACGTGGCT	-0.0627
GCAAGGCA	-0.1
CTCGATTA	0.305
CGGGCGTC	-0.0716
CGGAGAGC	-0.117
AGCTAAAT	0.103
GAAAACTA	0.147
ATATGGCC	-0.141
CACAGGCG	-0.208
AAGCCAAT	-0.0568
TAACAAAA	-0.0747
TCGTTGCA	0.3
GGCCACAC	-0.253
ACATTGTA	0.15
AATGCTTG	-0.147
TTGCTAAA	0.0398
GTCCGCCA	-0.302
GCAGATGC	-0.0873
GCTCCCAA	0.0061
AAACGTGA	0.165
AGCAGTTG	-0.245

Sequence	PBM E-score
CATTTCAG	-0.128
GCCGCAGA	-0.0394
GCTCGCCA	0.0791
ACTGGTAA	0.113
CTAACAAC	-0.00702
ACGTATAG	0.433
AACTTACC	0.0713
GACTAAAA	-0.0441
AGTCCCTA	-0.261
GGGTCAAA	0.115
ATGCGCAG	-0.0927
ATAGGATA	-0.0172
GTTTCCAA	0.0283
CAAGCCTC	-0.0986
TTCAGAAA	-0.164
AACAGGCC	-0.219
ATGTAATG	-0.0645
CCAAACCC	-0.0175
CGGGGCGC	-0.0354
ACGGCGGG	0.16
GGAGCAAA	-0.00615
CACGGAGA	-0.147
AACATGTT	-0.0112
CGGGCACA	-0.182
GCCGATAA	-0.223

Sequence	PBM E-score
CTCCAGGA	-0.192
CGACCGCC	0.151
TAAAATCA	0.0046
ACCTCAAT	-0.172
TAATTGGA	-0.00998
AAGTTTCG	0.111
AAGTGATA	-0.0783
AGTACTTG	0.101
CGAATATA	0.125
CGATCAGA	0.0644
AGAAACCG	0.142
GTCTGATA	-0.0611
GCAGGGGC	-0.197
CGGATAAA	0.337
CCCGACTA	0.0186
TATTGGAA	-0.0664
ACTTTACA	0.0242
AGGCTCGG	-0.0188
CAGCGCAC	-0.261
ATTGCCGG	0.0399
CGCTCTAC	0.0839
GCAATTTA	0.148
AGAGTGCC	-0.209
CGGCGGAG	-0.113
CTAAGGGC	-0.21

Sequence	PBM E-score
TATGATAA	0.0585
AAACGCAT	0.177
TCGGGAAA	0.147
GTCTAATA	0.0467
ATAATCAA	-0.035
ATTTGACA	-0.0218
CCATCCGA	-0.0149
ATGCGGCA	-0.0824
GATCGCTA	0.0586
GCACTGGA	-0.0891
AAAGTAGA	-0.0604
CTCGACGA	-0.0893
CCTGCTCG	0.185
CTCAGGGA	-0.231
GCCAATCC	-0.0973
GTTGTGCA	0.0168
AACTTCGT	0.32
CCCACCCG	0.0201
GTTTTTGA	0.00143
ATGTACTC	-0.112
ACCCAATG	-0.306
ACGGCATC	0.213
GCCTTCTA	0.0289
AGCCTCAA	-0.154
ACCTTATC	-0.0439

Sequence	PBM E-score
AAGACGGT	-0.166
CCGGTGGC	-0.168
ATTACCCG	-0.0755
ATGCTTCC	0.019
ACACGGCA	0.119
CTCCGCTC	-0.0256
ACAGGCAG	-0.133
ACACCTGA	0.0227
GTTAGCGA	0.194
AAGGAATC	-0.115
CACTGACA	0.0345
CATCAATG	-0.228
CTGTTCAC	-0.0614
CTCCGGTA	0.0616
AAAGTCTG	-0.14
TCAGCTCA	-0.115
CTTCTATA	0.0642
CATACGAG	0.486
AATACCCT	-0.0205
